Results from PubChem BioAssay AID686978 (National Center for Advancing Translational Sciences (NCATS), 2013).
Out of some 420,000 compounds screened, about 64,000 (15%) were called active. Inconclusive means that the source gave no clear call. Such entries were picked first, then a sample of the others. Calls come from the whole dose curve; as a rule, active = well fitted inhibition curve with a large enough effect; inconclusive = small, poorly fitted or top-dose-only effect; inactive = flat fitted curve, though single readings scatter. No potency is given beside an inconclusive call; the fits are too rough.

experiment: qHTS for Inhibitors of human tyrosyl-DNA phosphodiesterase 1 (TDP1): qHTS in cells in absence of CPT; settings: DT40 Tdp1-/- hTDP1 cells, no CPT, ATP luminescence, 48 h; activity change, negative = growth inhibition: at 46.2 µM (top of the series) unless noted; note: nearly all actives have a fitted effect of over 55% in size
In short: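 Growth of hTDP1-complemented DT40 Tdp1-knockout cells is measured by ATP luminescence after at least 48 hr compound exposure at 37 °C, with DMSO substituting for the 20 nM CPT used in the parallel screen.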
% is set by controls: 0 for no effect and ±100 for the full control effect; potency is the fitted concentration of half-maximal effect; tags give direction and shape of the fitted curve.

Row | SMILES | Potency | activity change, negative = growth inhibition
1 | COc1cc(OC)cc(C(=O)Nc2ccc3c(c2)N(C2CCCC2)C(=O)c2ccccc2S3)c1 | inconclusive [inhibitor, single point] | 
2 | Cc1cccn2c(=O)c(C=O)c(Nc3ccccc3)nc12 | inconclusive [inhibitor, partial curve, poor fit] | 
3 | CCCCCC(=O)N1C[C@H](n2cc(C3CC3)nn2)[C@@H](O)C[C@@H]1c1ccccc1 | inconclusive [inhibitor, single point] | 
4 | Cc1ccc(C(C(=O)Nc2ccc3c(c2)OCO3)N(C)C(=O)Cc2c[nH]c3ccccc23)cc1 (stereo not drawn) | inactive | 
5 | CN(CC(=O)Nc1ccccc1Cl)C(=O)c1cc(-c2cccs2)nn1-c1ccccc1 | inconclusive [inhibitor, single point] | 
6 | O=C(Nc1cc(Cl)ccc1Cl)C1CC(=O)N(c2ccc(Br)cc2)C1 (stereo not drawn) | inconclusive [inhibitor, single point] | 
7 | Cc1ccc(CNC(=O)c2cccnc2Cl)cc1 | inconclusive [inhibitor, single point] | 
8 | CCN(CC)CCN1CNC(=S)NC1 | inactive | 
9 | Oc1ccccc1N=N/C(=N/Nc1ccccc1O)c1ccccc1 | inconclusive [inhibitor, partial curve] | 
10 | COc1cccc(C(C(=O)NC(C)(C)C)N(Cc2ccco2)C(=O)CCC(=O)Nc2cc(C)on2)c1OC (stereo not drawn) | active: 29.1 µM | 
11 | CCN(CC)CCOc1nc(C)nc2c1oc1ccccc12 | inconclusive [inhibitor, single point] | 
12 | CC(=O)Nc1cccc(Oc2nc(-c3ccccn3)nc3ccccc23)c1 | inconclusive [inhibitor, single point] | 
13 | CC(C)CC(=O)Nc1nc(=S)ss1 | active: 10.3 µM | 
14 | O=C(CN1C(=O)c2cccnc2Oc2ccc(Cl)cc21)N1CCOCC1 | inactive | 
15 | Cc1nc(NCCc2ccccc2)c2nnn(Cc3ccccc3)c2n1 | inconclusive [inhibitor, single point] | 
16 | O=C(Nc1ccccc1)C1=C[C@H](c2csc3ccccc23)C[C@H](OCc2ccc(CO)cc2)O1 | active: 16.4 µM | 
17 | O=C(CSc1nnc(-c2cccnc2)n1Cc1ccco1)Nc1nc(-c2ccc(F)cc2)cs1 | inconclusive [inhibitor, partial curve] | 
18 | FC(F)Sc1ccc(NC(=S)NCc2ccccc2)cc1 | inconclusive [inhibitor, single point] | 
19 | NC(Cc1ccc(C(F)(F)F)cc1)c1csc(Nc2ccccn2)n1 (stereo not drawn) | inconclusive [inhibitor, single point] | 
20 | CCOC(=O)N1CCC(NC(=O)c2ccccc2C(=O)O)CC1 | inactive | 
21 | Cc1cc(=O)oc2cc(NC(=O)c3cccc(F)c3)ccc12 |  | inconclusive: -30.5% [inhibitor]
22 | COc1cccc(-c2nnc(SCC(=O)Nc3ccc4c(c3)OCCO4)n2Cc2ccco2)c1 | inconclusive [inhibitor, single point] | 

Row | SMILES | Potency | activity change, negative = growth inhibition
23 | Cc1ccc(C)c(N2CCN(S(=O)(=O)c3c(C)nc4sccn4c3=O)CC2)c1 | inactive | 
24 | COc1ccc(N=Nc2cc(OC)c(N)cc2OC)cc1 |  | inconclusive: -36.7% [inhibitor]
25 | O=C(COC(=O)Cc1ccccc1F)Nc1ccc2[nH]c(=O)[nH]c2c1 | inactive | 
26 | CCOc1ccc(-c2nnc(SCC(=O)NCc3ccccc3)nc2-c2ccc(OCC)c(OC)c2)cc1OC | inconclusive [inhibitor, single point] | 
27 | CCc1ccc(C2CC(=O)Nc3c2c(C)nn3-c2nc(C)cc(C)n2)cc1 (stereo not drawn) | active: 20.6 µM | 
28 | Cc1cc(C)cc(OCC(=O)Nc2ccccc2N2CCCCC2)c1 | inconclusive [inhibitor, single point] | 
29 | CCOc1ccccc1NC(=O)Cn1cnc2sc(C)c(S(=O)(=O)N3CCC(C)CC3)c2c1=O | inconclusive [inhibitor, single point] | 
30 | COc1ccc(CNC(=S)NC(C)CCc2ccccc2)cc1 (stereo not drawn) | inconclusive [inhibitor, single point] | 
31 | CC1(CC(=O)N/N=C/c2ccc(-c3ccc(Cl)cc3)o2)OCCO1 | inconclusive [inhibitor, single point] | 
32 | Cc1cc(C)cc(-n2c(SCC(N)=O)nc3c(oc4ccccc43)c2=O)c1 | active: 14.6 µM | 
33 | CCCCOc1cccc(C(=O)Nc2ccc3oc(-c4cccnc4)nc3c2)c1 | inconclusive [inhibitor, single point] | 
34 | CC(C)c1ccc(CNC(=O)C2CCCN2S(=O)(=O)c2ccccc2)cc1 (stereo not drawn) | active: 11.6 µM | 
35 | Cc1ccc(NC(=O)c2cc3ccccc3o2)cc1S(=O)(=O)N(C)C | inconclusive [inhibitor, partial curve, poor fit] | 
36 | CN(CC(=O)Nc1ccc(Cl)cc1)C(=O)c1ccc(S(=O)(=O)Nc2ccccc2)cc1 | inconclusive [inhibitor, partial curve] | 
37 | C[C@@H]1CN(C(=O)c2nc3ccc(Cl)cn3c2CNCC[C@@H]2C[C@@H]3C=C[C@H]2C3)C[C@H](C)O1 | inconclusive [inhibitor, single point] | 
38 | CCCN1CCN(C(=O)c2oc3c(Cl)cccc3c2C)CC1 | inconclusive [inhibitor, single point] | 
39 | COc1cc(C(=O)Nc2ccc(S(=O)(=O)N3CCCCC3C)cc2)cc(OC)c1OC (stereo not drawn) | inconclusive [inhibitor, single point] | 
40 | O=C(NCc1ccc2c(c1)OCO2)C(=O)NCC(c1ccco1)N1CCN(c2ccccc2)CC1 (stereo not drawn) | inconclusive [inhibitor, single point] | 
41 | CC1C(=O)C(C)C(c2ccc(Br)cc2)NC1c1ccc(Br)cc1 (stereo not drawn) |  | inconclusive: -30.8% [inhibitor]
42 | CCn1cc(S(=O)(=O)NCc2ccc3c(c2)OCO3)cn1 | inactive | 
43 | CC(=O)c1c(C)oc2ccc(N(C(C)=O)S(=O)(=O)c3cccc([N+](=O)[O-])c3)cc12 | inconclusive [inhibitor, single point] | 
